Measurements taken from PubChem BioAssay AID485281 (National Center for Advancing Translational Sciences (NCATS), 2010).
Screen size: about 350,000 compounds; about 260 (0.074%) were called active. The shares of active, inactive and inconclusive entries below differ from those in the screen. Calls follow the shape of the dose curve; as a rule, active = well fitted inhibition curve with a large enough effect; inconclusive = small, poorly fitted or top-dose-only effect; inactive = no such curve, though single readings can be large or run the other way. Where the call is inconclusive, the potency comes from a doubtful curve fit.

The compounds below were run against Ferritin light chain (Equus caballus) (UniProt P02791) (assay: qHTS Assay for Identification of Novel General Anesthetics). Conditions: apoferritin/1-aminoanthracene competitive binding, fluorescence; activity change, negative = displacement: at 77.5 µM (top of the series).
Summary of the method: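 Concentration-response curves derived by four-parameter Hill fitting of normalized fluorescence, where compounds displaced 1-AMA from 10 uM horse apoferritin following a brief 10 min room-temperature incubation; propofol titration acted as positive control.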
% is scaled to controls: 0 for no effect and ±100 for the full control effect; potency is read from the fitted curve at half-maximal effect; tags tell the direction and shape of the fitted curve.
Also: nearly all actives have a fitted effect of over 20% in size.

Chain of UniProt P02791 (P02791 whole entry, looked up): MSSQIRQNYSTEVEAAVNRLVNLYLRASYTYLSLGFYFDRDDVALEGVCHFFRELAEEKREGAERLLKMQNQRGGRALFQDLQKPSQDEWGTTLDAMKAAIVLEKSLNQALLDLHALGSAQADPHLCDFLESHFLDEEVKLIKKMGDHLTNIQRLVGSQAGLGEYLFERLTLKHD

SMILES | Potency | activity change, negative = displacement
O=C(/C=C/c1ccccc1)N(Cc1ccc(Cl)cc1)C1CCS(=O)(=O)C1 (stereo not given) | inconclusive: 39.8 µM [inhibitor, partial curve] | 
Cc1cc(-c2ccccc2)nc2[n+]1CCN2C |  | inactive: 8.51%
O=S(=O)(O)c1cc(O)c2c(O)c(N=Nc3cc(Cl)ccc3O)c(S(=O)(=O)O)cc2c1 |  | inactive: 5.07%
COc1ccc(C(C(=O)NCc2ccccc2)N(Cc2ccc3c(c2)OCO3)C(=O)c2cnccn2)cc1 (stereo not given) | inconclusive: 22.4 µM [inhibitor, partial curve] | 
Cc1ccc(C(=O)N/C(=C\c2ccccc2F)c2nc(=S)[nH][nH]2)cc1 | inconclusive: 35.5 µM [inhibitor, partial curve] | 
O=C(CSc1ccccn1)c1ccc(F)cc1 | inconclusive: 50.1 µM [inhibitor, partial curve] | 
CC(C)(c1ccccc1)c1ccc(OCCN2CCCC2)cc1 | inconclusive: 20 µM [inhibitor, partial curve] | 
COc1ccc(CCNC(=O)Cc2cc(OCc3ccccc3)c(OC)cc2[N+](=O)[O-])cc1OC | inconclusive: 31.6 µM [inhibitor, partial curve] | 
CC1OC(OC2C(CO)OC(OC3C(CO)OC(O)C(O)C3O)C(O)C2O)C(O)C(O)C1NC1C=C(CO)C(O)C(O)C1O (stereo not given) | inactive | 
Cc1cccc2c(N=O)c(O)[nH]c12 |  | inactive: -7.3%
Cc1nn(-c2cccc(Cl)c2)c2nc(-c3ccco3)cc(C(=O)O)c12 |  | inactive: -7.29%
CCOC(=O)c1csc(NC(=O)CSc2nnnn2-c2ccc(OC)cc2)n1 | inconclusive: 17.8 µM [inhibitor, partial curve] | 
Cc1nc(C)c(CCNS(=O)(=O)c2ccc(C)c(C)c2)s1 | inconclusive: 39.8 µM [inhibitor, single point] | 
c1ccc(Nc2ccccn2)cc1 | inconclusive: 50.1 µM [inhibitor, single point] | 
Cc1ccc(C(=O)Nc2cccc(C(=O)N/N=C/c3ccc(F)cc3)c2)cc1 |  | inactive: -4.71%
Cc1cc(O)ccc1Nc1nc2ccccc2nc1Nc1ccc(O)cc1C |  | inactive: -13.4%
CC1=C(C(=O)OCCOC(C)C)C(c2cc3c(cc2Br)OCO3)CC(=O)N1 (stereo not given) | inconclusive: 31.6 µM [inhibitor, single point] | 
COc1cc(OC)cc(C(=O)N2CCCc3ccccc32)c1 | inconclusive: 35.5 µM [inhibitor, partial curve] | 
CCOc1ccc(N(CC)C(=O)c2cc3c(=O)oc4ccccc4c3s2)cc1 | inconclusive: 5.62 µM [inhibitor, full curve] | 
CCCC(=O)Nc1cc(Cl)ccc1C | inconclusive: 39.8 µM [inhibitor, partial curve] | 
Nc1ccccc1Sc1c[nH]c2ccccc12 | inconclusive: 31.6 µM [inhibitor, partial curve] | 
CN(CC1COc2ccccc2O1)C(=S)NC1CCCCC1 (stereo not given) | inconclusive: 35.5 µM [inhibitor, single point] | 
Nc1nnc(SCC(=O)Nc2ccc(S(=O)(=O)N3CCOCC3)cc2)s1 | inconclusive: 28.2 µM [inhibitor, partial curve] | 
CCS(=O)(=O)N1CCc2cc(C(=O)N3CCN(c4ccccc4)CC3)ccc21 | inconclusive: 2.24 µM [inhibitor, full curve] | 

SMILES | Potency | activity change, negative = displacement
COc1ccccc1-c1nc(NCc2cnc(C)cn2)c2ccccc2n1 | inconclusive: 14.1 µM [inhibitor, partial curve] | 
O=C(Cn1c(=O)[nH]c2ccsc2c1=O)NC1CCCCCC1 | inconclusive: 35.5 µM [inhibitor, partial curve] | 
C=CCn1c(=N)n(CC(=O)OCC)c2ccccc21 |  | inactive: -7.19%
Cc1ccc(-c2cc(-c3n[nH]c(=S)n3C)c3ccccc3n2)cc1 | inconclusive: 25.1 µM [inhibitor, partial curve] | 
Cc1cccc(C)c1N=Nc1c(C)cc(O)cc1C | active: 25.1 µM | 
COc1ccccc1N1CCN(C2=Nc3cccc4cccc2c34)CC1 | inconclusive: 22.4 µM [inhibitor, partial curve] | 
S=C(c1ccccc1)N(c1ccccc1)c1ccccc1 | inconclusive: 25.1 µM [inhibitor, partial curve] | 
N#Cc1c(NCCN)nc(-c2ccco2)c2c1CCCC2 |  | inactive: 3.57%
CC1Cc2ccccc2N1C(=O)CN1CCC(n2nnc3cc(C(F)(F)F)ccc32)CC1 (stereo not given) | inconclusive: 2.24 µM [inhibitor, partial curve] | 
CCc1ccc2[nH]c(=O)c(C3C(C#N)=C(N)Oc4c3ccc3cccnc43)cc2c1 (stereo not given) | inconclusive: 50.1 µM [inhibitor, partial curve, poor fit] | 
O=C(Nc1ccn(Cc2c(F)c(F)cc(F)c2F)n1)c1cccc(Cn2cc([N+](=O)[O-])cn2)c1 | inconclusive: 31.6 µM [inhibitor, partial curve] | 
O=C(O)/C=C\C(=O)Nc1ccccc1C#Cc1ccccc1 | inconclusive: 28.2 µM [inhibitor, single point] | 
COC(=O)[C@@H](N)CSC/C=C(\C)CC/C=C(\C)CCC=C(C)C | inconclusive: 35.5 µM [inhibitor, single point] | 
O=C(NNC(=O)c1ccccc1-c1ccccc1C(=O)O)c1ccccc1 |  | inactive: -0.513%
O=C(Cn1nnc(-c2ccccc2NC(=O)c2ccco2)n1)Nc1ccccc1 | inconclusive: 20 µM [inhibitor, partial curve] | 
O=C(/C=C/c1ccccc1)NCCC1=CCCCC1 | inconclusive: 50.1 µM [inhibitor, single point] | 
CCOC(=O)c1ccc(NC(=O)Cc2coc3cc(C)cc(C)c23)cc1 | inconclusive: 6.31 µM [inhibitor, full curve] | 
CC1CC(C)CN(C(=O)CSc2nnc(-c3ccc(Cl)s3)o2)C1 (stereo not given) | inconclusive: 20 µM [inhibitor, single point] | 
CCCn1c(CCC(=O)Nc2ccccc2Cc2ccccc2)nc2cc(S(=O)(=O)N3CCOCC3)ccc21 | inconclusive: 12.6 µM [inhibitor, partial curve] | 
O=C(CCCC(=O)OCC(=O)c1ccc(Cl)cc1)NC1CCCCC1 | inconclusive: 12.6 µM [inhibitor, partial curve] | 
Cc1ccc(O)c(Sc2cc(C)ccc2O)c1 | inconclusive: 7.94 µM [inhibitor, partial curve] | 
CS(=O)(=O)c1nc(S(=O)(=O)c2ccc(Cl)cc2)c(N2CCC3(CC2)OCCO3)s1 |  | inactive: -20.3%
CCOC(=O)Cn1cc(/C=N/NC(=O)c2ccc(C#N)cc2F)c2ccccc21 | inconclusive: 20 µM [inhibitor, partial curve] | 
NS(=O)(=O)c1ccc(N=Nc2ccc(O)c3ncccc23)cc1 |  | inactive: -2.92%

SMILES | Potency | activity change, negative = displacement
COc1ccccc1N1CCN(C(=O)C2c3ccccc3Oc3ccccc32)CC1 |  | inactive: -0.141%
Cc1ccc(C(c2sc3nc(-c4ccco4)nn3c2O)N2CCCCC2)cc1 (stereo not given) |  | inactive: -11.7%
C=Cc1ccc(Cn2c(=O)n(-c3ccccc3C)c(=O)c3c4c(sc32)CN(C(C)=O)CC4)cc1 |  | inactive: -8.6%
Cc1ccc(N2C(=O)CSC2=S)cc1C | inconclusive: 35.5 µM [inhibitor, partial curve] | 
Cc1nc(C(=O)N2CCCC(Nc3ccc(C)c(C)c3)C2)cs1 (stereo not given) | inconclusive: 25.1 µM [inhibitor, partial curve] | 
Cc1sc2ncnc(Sc3nnnn3-c3ccc(Cl)cc3)c2c1C | inconclusive: 39.8 µM [inhibitor, partial curve] | 
COc1ccccc1N1C(=O)C2C3C=CC(C3)C2C1=O (stereo not given) | inconclusive: 14.1 µM [inhibitor, partial curve] | 
Cc1cc2oc(=O)cc(-c3ccccc3)c2c(C)c1-c1ccc(C#N)cc1 | inconclusive: 39.8 µM [inhibitor, partial curve] | 
Cc1ccc(N2C(=O)N(CC(=O)Nc3cc(C)cc(C)c3)C(=O)C2C)cc1 (stereo not given) | inconclusive: 35.5 µM [inhibitor, partial curve] | 
CCSc1nnc(NC(=O)CSc2nccn2-c2cccc(C)c2)s1 | inconclusive: 31.6 µM [inhibitor, partial curve] | 
COCCN(CCOC)S(=O)(=O)c1ccc(C(=O)Nc2nc(-c3ccncc3)cs2)cc1 | inconclusive: 31.6 µM [inhibitor, partial curve] | 
O=C(O)CCSCC(=O)Nc1c(C(=O)C2CC2)oc2ccccc12 |  | inactive: -9.3%
Cc1ccc(-c2ccc(/C=N/NC(=O)c3ccccc3O)o2)cc1 |  | inactive: 6.82%
COc1ccccc1CNC(=O)Nc1ccc2c(c1)N(C)C(=O)c1ccccc1S2 | inconclusive: 22.4 µM [inhibitor, partial curve] | 
COc1cc(/C=C2\SC(=S)N(Nc3ncc(C(F)(F)F)cc3Cl)C2=O)ccc1O | inconclusive: 28.2 µM [inhibitor, partial curve] | 
c1ccc2c(c1)Cn1c-2nc2ccccc21 |  | inactive: 4.05%
O=c1ccc(/C=C/c2ccccc2)nn1Cc1ccc(F)cc1 | inconclusive: 44.7 µM [inhibitor, single point] | 
CC(C)(C)c1nnc(NS(=O)(=O)c2cc(Cl)ccc2Cl)s1 | inconclusive: 28.2 µM [inhibitor, single point] | 
Cc1cc(C(=O)CC#N)c(C)n1-c1ccc(OC(F)F)cc1 | inconclusive: 35.5 µM [inhibitor, partial curve] | 
CCOC(=O)c1c(C)c(C(=O)NCCc2ccc(OC)cc2)c(C)n1CC |  | inactive: -10.3%
CN1C(=O)C2(OCC(C)([N+](=O)[O-])CO2)c2ccccc21 (stereo not given) |  | inactive: -6.72%
COc1ccc2cc(C(=O)N3CCCC(Nc4ccc(F)cc4)C3)n(C)c2c1 (stereo not given) | inconclusive: 56.2 µM [inhibitor, single point] | 
